From the supplement of paper PMC11417369
This is one part of the list.

Test system: PfSIP2 AP2 domain 1 (GST-tagged)
Experiment: gcPBM binding intensity (ln(normalized median fluorescence intensity)); higher = stronger DNA binding
How it was run: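 Binding intensity values are the highest Masliner-normalised natural-log median intensity among replicate spots of either probe orientation. The binding step lasted 1 h in 1× PBS with 1% milk, 0.2 mg/ml BSA, 0.5% salmon testes DNA and 0.03% Triton X-100, using GST-tagged P. falciparum DNA-binding domains expressed in E. coli on an Agilent 4 × 180k array of primer-extended double-stranded 36-bp intergenic genomic probes plus negative controls. Alexa488 anti-GST antibody and a 488 nm scan detected bound protein.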

Row | Sequence | gcPBM binding intensity (ln)
1 | AAAAAAAAAAAAAAAACACACATATATGTATATATA [CACACA_site3276] | 7.43
2 | CAATTACGCAGGAATGCACACAATAATAAAAAAAAT [CACACA_site3513] | 7.43
3 | ATATATATATATATATGTACATATTTTTTATTTTAT [XGTACX_site5761] | 9.29
4 | TATTATTCAAATAAAAGAAAAATATATATATTATAT [GTGCAC_negctrl_site273] | 7.28
5 | ATATGTTACTTTACATAAAGAAGAAGAAGAAGAAAA [CACACA_negctrl_site985] | 6.63
6 | TTTCAAAAAGGAAGAAAAAAAAAAAAAAAAAATATA [XGTACX_negctrl_site514] | 6.6
7 | TCCCCCTTTTTTTGATTTTTATCTTAATTCTAAAAG [GTGCAC_negctrl_site541] | 7.05
8 | AAACATTTAAATGGAAACACAGAAAAATGAAAAATG [CACACA_negctrl_site457] | 7.12
9 | TTTTTTTTTTGTAATACACACCACTATATGTTATTT [CACACA_site5087] | 6.84
10 | ATATATATATATACATGTACATATATACATTATATT [XGTACX_site936] | 9.54
11 | ATGTTATATTTTTTTATACACACTGGAATATATAAA [CACACA_site215] | 7
12 | TATATATATATATATTGTACTTTATTTTATATATTC [XGTACX_site5697] | 9.35
13 | ATTATTATTGTCAAATGTACAAGCTAATAATTTTTA [XGTACX_site7167] | 6.94
14 | ATTTATAATGAGTATACACACATATATAGATTTGCT [CACACA_site4517] | 6.88
15 | TAAAAAATAAAATACACACACATATTTATATTTATA [CACACA_site6737] | 6.87
16 | AAAAAAAAAAAAAACATACACACAAGAACAAAATAT [CACACA_site3003] | 7.28
17 | CAACAACATTTTTCATGTACATATATTTTATAATAT [XGTACX_site519] | 7.38
18 | TTTTCTTAATATTTCGTTTTACATAAACCTTTTAAA [CACACA_negctrl_site660] | 7.06
19 | AATATAATATTATATAGTACATATTTCTTTTATTTT [XGTACX_site22] | 6.82

Row | Sequence | gcPBM binding intensity (ln)
20 | TTTTACATCATATATAGTACATATATTATACATATA [XGTACX_site8590] | 7.03
21 | TATATATATATAAGTAGTACAATAATATATTATTTT [XGTACX_site6450] | 8.88
22 | ATATATTTTCATTTTACACACAAATAAAGATAATTT [CACACA_site2996] | 7.27
23 | AAAATAAATAAAAAAAGTACATATATAATTTATAAA [XGTACX_site2411] | 7.01
24 | TCTTGATACAAACATTTAAATAAATAAATAAAAAAA [GTGCAC_negctrl_site41] | 7.1
25 | AAAATACACGCATACACACACACACCGACACATATA [CACACA_site4523] | 7.19
26 | TGTTGTGATATATTAAAATCGTCCCTTATAATTTTA [GTGCAC_negctrl_site595] | 6.79
27 | TAATATTATATTTATAGTACATATAATATATATATA [XGTACX_site2964] | 8.62
28 | GAACACTAATAATGTTGTACACGTAATTATATATTT [XGTACX_site777] | 7.13
29 | AAACACACACACAAATGTACATATATATATATATTT [XGTACX_site5090] | 7.45
30 | TATAATATATGTATATGTACTTATGTTGAGAAACAT [XGTACX_site2117] | 6.95
31 | TACCTAATATGTTATACACACATTATGAGTACATAT [CACACA_site2466] | 7.08
32 | GAATAATATATATGTTCACACATGGTCTTTATTATA [CACACA_site5457] | 6.91
33 | GTTATATAAACATATGCATGTGAAGTGTTTATTAAT [TGCATGCA_site183] | 6.9
34 | TATATATATATAATTGCACACATCAAGTTTGATGTT [CACACA_site1288] | 8.97
35 | GTTGTATACAATAATGTGCACATATTAATTTGAACT | 8.78
36 | AAATGTACAGGACGCACACACATATTTATATTTATA [CACACA_site7689] | 7.12
37 | TTTTTTTTTCCTTTTTTTTAAATATTAAAAATGGGA [TGCATGCA_negctrl_site494] | 6.91
38 | CTTATTTACTATTTTTCACACATTACAGATAAACAA [CACACA_site6095] | 7.33

Row | Sequence | gcPBM binding intensity (ln)
39 | TAAGTTTTGTTTTTTTGTACTCATTCATACTATCAT [XGTACX_site3638] | 7.2
40 | TAAATATATATATATAGTACAATATAATTATGATAT [XGTACX_site258] | 7.24
41 | TCATTGAAAAAAATCTGTACTGACTATATAGTTGCA [XGTACX_site1566] | 6.76
42 | GCTTAATACAGAATAACACACAAAATAAATAAATAA [CACACA_site4041] | 7.06
43 | TTTTTTTTTTTTTTTGCACACTTAAATTTGGTGGCT [CACACA_site5319] | 7.56
44 | CATATAATAAATAATTGTACTTGATATAATATTATG [XGTACX_site3562] | 6.91
45 | TTGGCTATAGCCAATTGTACTTTTTCTCTTTGGCTT [XGTACX_site1119] | 7.07
46 | GACATATATACCAAACGTACATATGTGCAAGCATAA [XGTACX_site3089] | 7.21
47 | TCTTGATTAACTTAAAAAAAAAAAAAAAAAAAAAAA [CACACA_negctrl_site458] | 6.89
48 | TATATTTGTGCGTGTACACATTTGAAAAAATATATA [CACACA_site5079] | 7.6
49 | ATAAATTATAATAACTGTACAAAAATAATATATTCA [XGTACX_site1856] | 6.93
50 | AATAATAATAAAAAGGTGCTGAAATATTTTTATTAT [GTGCAC_site9763] | 8.38
51 | TATATAATTATTTTTTGTACTCATAATAATATGAAA [XGTACX_site289] | 7.23
52 | ATATGTACAAAATAAGCACACACAAAAAAAAAAAAA [CACACA_site8984] | 7.2
53 | AAAAAAAAAAAAAATATATATATATATATATATATA [CACACA_negctrl_site540] | 9.76
54 | TTTTTTTTTTTTTTTTGTACATAAATTTTTATTAGA [XGTACX_site6409] | 6.96
55 | TATGAGAAAAAAAGTACATGCACAAAATGTATATGT [TGCATGCA_site789] | 7.3
56 | CAACATTGTTCCTATTGTACATGAACTGTTCATACG [XGTACX_site4070] | 6.77
